Laboratory results from publication PMC7819943, “Rice protein-binding microarrays: a tool to detect cis-acting elements near promoter regions in rice”.
Some of the results follow.

Biological target: T1, OsWOX13 (Oryza sativa, UniProt Q5QMM3 1-267)
T1 sequence: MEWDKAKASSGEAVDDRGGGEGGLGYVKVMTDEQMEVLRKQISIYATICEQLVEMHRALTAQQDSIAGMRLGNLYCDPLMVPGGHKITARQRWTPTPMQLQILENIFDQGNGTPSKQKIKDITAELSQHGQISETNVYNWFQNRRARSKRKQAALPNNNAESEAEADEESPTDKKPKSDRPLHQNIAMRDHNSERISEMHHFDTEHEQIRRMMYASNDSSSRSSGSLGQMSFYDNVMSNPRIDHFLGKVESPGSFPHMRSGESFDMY
Assay: protein-binding microarray (RPBM); PBS, 2% BSA, 51.3 ng/ul salmon testes DNA, 50 uM zinc acetate, 200 nM TF, 25 C, 1 h; high values mean tight binding
Conditions: protein: recombinant; tags: N-terminal polyhistidine and DsRed monomer fusion (pET32a); label: CyDye5-dUTP incorporated in the synthesized complementary strand; 3' TTTTT single-stranded linker to array surface; dsDNA, one strand shown
Method in brief: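 Transcription factors were made in E. coli BL21-CodonPlus as N-terminal fusions to a polyhistidine tag and DsRed, then purified on Ni–NTA. After primer extension with Cy5-dUTP and blocking with 2% BSA, a custom Agilent array was exposed for 1 h at 25 °C to 200 nM protein in PBS, 2% BSA, salmon testes DNA and 50 µM zinc acetate. Washed arrays were scanned on an Axon 4000B, and the binding signal is per-feature fluorescence intensity in arbitrary units.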

Sequence	binding signal
TTCGCATGATTTTGTACATACCACTTTCTGCCTATGCAAGCGGAGTCACCTAGTGCAG	5030 fluorescence intensity (a.u.)
GTCTCTTTCAATCACAAATGATTGCTGACTAAACTTGTTTCGGAGTCACCTAGTGCAG	39100 fluorescence intensity (a.u.)
TATAATTGAATAAATTTTCATATTATATTTATCTTGTGTTCGGAGTCACCTAGTGCAG	63100 fluorescence intensity (a.u.)
TTATTAGTTAATTAATAGTAGAAATAATATAGTCATTTCTCGGAGTCACCTAGTGCAG	12300 fluorescence intensity (a.u.)
GCGTCAATTAGTGCCTCTCTCTGTATGCATTCTTCCTATTCGGAGTCACCTAGTGCAG	23300 fluorescence intensity (a.u.)
AGTCTAATTAGTCTATGATTAGCCATAAGTACTATAGTAACGGAGTCACCTAGTGCAG	48400 fluorescence intensity (a.u.)
GAGGCTAATTGCCTTCGCAAGCAAACAAACCCAGCGCGGTCGGAGTCACCTAGTGCAG	13400 fluorescence intensity (a.u.)
TATAAAATTAGAAACATGATAATGATAAGGTTTGATATTTCGGAGTCACCTAGTGCAG	7420 fluorescence intensity (a.u.)
GATTAATTTATTTTGAAAAGATAAGAGTACAGACGACTCTCGGAGTCACCTAGTGCAG	14800 fluorescence intensity (a.u.)
GCAGTTGATGGTCAAAATTGGTAGTTAACAACCGTCAACACGGAGTCACCTAGTGCAG	7710 fluorescence intensity (a.u.)
ATTTAATTGCAATGAATTTAATGGTGTAATTGGACCATAACGGAGTCACCTAGTGCAG	37900 fluorescence intensity (a.u.)
CAGATGAAGTGATTGCAAATCTCAAGAACGACTTGGTTGACGGAGTCACCTAGTGCAG	11500 fluorescence intensity (a.u.)
TTTAGAGATAAATAAATTTAATAGACTCTATAGGACGTTACGGAGTCACCTAGTGCAG	6330 fluorescence intensity (a.u.)
GTGGTGATAGGTGATGTACACGGCGCCGGGGAGGCGATGACGGAGTCACCTAGTGCAG	4940 fluorescence intensity (a.u.)
ATTTAATCACCTCATTGATTGGATCACATCCATACTGTGACGGAGTCACCTAGTGCAG	29800 fluorescence intensity (a.u.)
CACCTATAATAACCTCAATTAACTTGGTGGCTTTATGCTCCGGAGTCACCTAGTGCAG	9290 fluorescence intensity (a.u.)
CGTGCGAGTCGCTCATCAATCACGTCATTCGCCCACACACCGGAGTCACCTAGTGCAG	9080 fluorescence intensity (a.u.)
AAATATATTCAATTATTGATTTGATGAAACTAATTTCGTACGGAGTCACCTAGTGCAG	23500 fluorescence intensity (a.u.)
AAAATTTGACAATATAACTTATATTGACATAACCTCCATACGGAGTCACCTAGTGCAG	11700 fluorescence intensity (a.u.)
TTTAGACAGTAATTAAAGTCGAATTACATTGCATTGTTCGCGGAGTCACCTAGTGCAG	40300 fluorescence intensity (a.u.)
AGCGAGATTGACTTGTTTGAAGTCAGATCAAAGCCATAATCGGAGTCACCTAGTGCAG	4870 fluorescence intensity (a.u.)

Sequence	binding signal
CGAAATTACTAATTACTGTTACCATTTTGTGCGTATCCTGCGGAGTCACCTAGTGCAG	35800 fluorescence intensity (a.u.)
TTTAGTGATTTGTCTAGTAATCACCTTGGTGGTTTGATTCCGGAGTCACCTAGTGCAG	17200 fluorescence intensity (a.u.)
TGGTAATTAGCTGGTGGATGCTGAACGTATTATTTTATTACGGAGTCACCTAGTGCAG	16300 fluorescence intensity (a.u.)
AAATTGAAAATTTTCAAATCAAGATTTGAAAACTATCAAGCGGAGTCACCTAGTGCAG	6740 fluorescence intensity (a.u.)
GGGAGCTTGACTGGATCTGAGCTAGCTGGATTGGTGGGTGCGGAGTCACCTAGTGCAG	4970 fluorescence intensity (a.u.)
TATATATATATATATATATATATATATATATATGTGTGTGCGGAGTCACCTAGTGCAG	25400 fluorescence intensity (a.u.)
AACATAATTGAGTAAATTGTATTTTCCTTTTGTGTTAGAGCGGAGTCACCTAGTGCAG	32600 fluorescence intensity (a.u.)
CTACTACAATGATTATTAATTATATGAATTTGGACTAGAGCGGAGTCACCTAGTGCAG	28000 fluorescence intensity (a.u.)
ATAATTTCCAATTTCTTTCCATACGTTTCTAACCTAGACCCGGAGTCACCTAGTGCAG	8590 fluorescence intensity (a.u.)
TACATCATGATTTGCAGTTCTTTGGCCTGATGAGTAAACCCGGAGTCACCTAGTGCAG	13700 fluorescence intensity (a.u.)
TGTCATCAAATTGGCATTCATAGCGCTATGTTCATATGTTCGGAGTCACCTAGTGCAG	10900 fluorescence intensity (a.u.)
ACTACTTACTACAAATTGAAAGACGCGTCATGTCTGCTGTCGGAGTCACCTAGTGCAG	6660 fluorescence intensity (a.u.)
GCTGATTTTAAGTATAAGCGAAACGGTATATATGCAAATACGGAGTCACCTAGTGCAG	10600 fluorescence intensity (a.u.)
TATCTGATTCAAATTTAAATTTAAATTCAAATATTTTCTACGGAGTCACCTAGTGCAG	11900 fluorescence intensity (a.u.)
AATGCTGATGGTTAATTGAGTTTTAATTGTTAGTATTAGTCGGAGTCACCTAGTGCAG	14300 fluorescence intensity (a.u.)
TCATAACTTATACACCTGATTGCAGCTAGACAGGGTATGACGGAGTCACCTAGTGCAG	11700 fluorescence intensity (a.u.)
GAATTGATATACTAATTATAGCAGCATGTAGCTACCGTCCCGGAGTCACCTAGTGCAG	24700 fluorescence intensity (a.u.)
ACAAACCAGAGATTAATTACAAACCAGCAAATCCATATCACGGAGTCACCTAGTGCAG	4840 fluorescence intensity (a.u.)
ATCTTAATTGTCAACGCTGTTTGTGCAATAATCTTCAGCTCGGAGTCACCTAGTGCAG	35100 fluorescence intensity (a.u.)
ACGGTGGCGGGGATGTGGAGGGAGGTGCAGGGGTGCGGGGCGGAGTCACCTAGTGCAG	7800 fluorescence intensity (a.u.)
TCTCCGGATCAATCATATTAATTTAGCCCTTCTTGATGCACGGAGTCACCTAGTGCAG	12500 fluorescence intensity (a.u.)
